PMC4336329 (PLoS ONE, 2015)
The whole screen tested about 310,000 compounds, of which about 2,200 (0.71%) showed an effect of 50% or more. Effects have a minus sign here. The list shows a part of the results. Where a SMILES comes first, the peptide text is derived from it. The star is where a group is joined. Cbz = O=C(OCc1ccccc1)*

The molecules below were run against human ether-à-go-go-related gene (hERG) potassium channel (human, UniProt Q12809) (assay: primary screen, population patch clamp on CHO cells stably expressing hERG).
human ether-à-go-go-related gene (hERG) potassium channel, sequence (Q12809 whole entry, looked up): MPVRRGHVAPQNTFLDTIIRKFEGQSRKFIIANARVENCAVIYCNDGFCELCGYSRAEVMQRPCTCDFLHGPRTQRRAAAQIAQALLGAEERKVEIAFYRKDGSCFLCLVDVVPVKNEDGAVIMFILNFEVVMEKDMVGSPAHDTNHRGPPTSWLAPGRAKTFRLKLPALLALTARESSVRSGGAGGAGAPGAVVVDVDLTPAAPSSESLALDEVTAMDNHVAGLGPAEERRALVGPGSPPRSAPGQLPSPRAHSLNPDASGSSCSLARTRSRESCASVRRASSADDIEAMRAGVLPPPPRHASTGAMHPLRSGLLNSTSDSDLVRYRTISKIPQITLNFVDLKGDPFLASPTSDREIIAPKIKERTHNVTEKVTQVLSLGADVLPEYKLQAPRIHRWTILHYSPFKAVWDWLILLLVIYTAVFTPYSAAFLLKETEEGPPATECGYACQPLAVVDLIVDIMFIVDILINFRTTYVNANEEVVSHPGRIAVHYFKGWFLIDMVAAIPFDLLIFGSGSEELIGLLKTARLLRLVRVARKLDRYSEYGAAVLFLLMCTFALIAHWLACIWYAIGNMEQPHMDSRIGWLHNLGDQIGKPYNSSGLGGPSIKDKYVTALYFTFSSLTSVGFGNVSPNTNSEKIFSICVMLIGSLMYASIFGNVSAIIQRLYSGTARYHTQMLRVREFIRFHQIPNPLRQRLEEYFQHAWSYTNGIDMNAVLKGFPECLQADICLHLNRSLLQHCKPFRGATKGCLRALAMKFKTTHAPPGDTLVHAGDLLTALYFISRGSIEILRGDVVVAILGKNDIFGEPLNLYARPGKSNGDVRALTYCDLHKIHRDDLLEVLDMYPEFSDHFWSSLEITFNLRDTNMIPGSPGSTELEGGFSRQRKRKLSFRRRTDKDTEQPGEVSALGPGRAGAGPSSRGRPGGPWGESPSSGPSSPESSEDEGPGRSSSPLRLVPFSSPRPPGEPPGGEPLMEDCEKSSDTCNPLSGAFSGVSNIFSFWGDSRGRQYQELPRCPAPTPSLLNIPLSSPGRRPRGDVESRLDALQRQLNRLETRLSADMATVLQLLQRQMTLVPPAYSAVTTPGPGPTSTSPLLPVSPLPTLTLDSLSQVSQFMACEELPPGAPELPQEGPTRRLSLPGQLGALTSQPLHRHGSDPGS

SMILES	hERG current change (%, negative = inhibition) at 1uM [%]
O=C(COc1ccc2c3c(c(=O)oc2c1)CCC3)N1CCCC1	13.9
CCCCNC(=S)N1CCn2cccc2C1c1cccnc1 (stereo not shown)	0.781
Cc1oc(-c2ccc(-c3ccccc3)cc2)nc1CN1CCN(CC(=O)N(C)C)CC1	-0.22
COCCn1c(=O)[nH]c2cc(C(=O)N3CCN(c4ccccc4F)CC3)ccc2c1=O	9.04
Cl.Clc1cccc(-c2ccc(CNCCCN3CCOCC3)o2)c1	-24.5
NNC(=O)Cn1nnc(-c2ccc(C(F)(F)F)cc2)n1	13.6
Cc1cccc(C)c1OCc1nnc(SCC(=O)NCCc2ccccc2)o1	-4.8
COc1ccc(C(CC(=O)O)NS(=O)(=O)c2ccc(C)cc2)cc1OC (stereo not shown)	10.4
CCN(C(=O)CSc1nnc(CNc2cccc(OC)c2)n1C1CCCCC1)C1CCS(=O)(=O)C1 (stereo not shown)	14.7
NCCCC[C@@H]1NC(=O)c2cc([N+](=O)[O-])cc(F)c2NCCCC[C@@H](C(N)=O)NC(=O)CNC1=O	18.6
COc1cccc(CNC(=O)CN2C(=O)NC(Cc3ccccc3)(c3ccccc3)C2=O)c1 (stereo not shown)	6.05
CS(=O)(=O)c1ccc(Cl)c(NC(=O)C2CCN(S(=O)(=O)c3cccs3)CC2)c1	8.41
CC(C)c1ccc(NC(=O)COC(=O)CCC(=O)c2cccs2)cc1	13.6
O=C(O)c1cc(/C=N\O)ccc1OCc1ccccc1	14.8
O=C(Nc1ncccc1O)c1ccc(S(=O)(=O)Nc2ccccc2)cc1	12.8
Cc1cc(C)cc(NC(=O)c2cccc(NC(=O)C3C4CC5OC(=O)C3C5C4)c2)c1 (stereo not shown)	-8.25
COc1ccccc1C(=O)NCC(=O)OCC(=O)Nc1nnc(-c2ccccc2)o1	9.54
CCN(CC(=O)Nc1ccc(NC(C)=O)cc1)C(=O)C1(c2ccccc2)CC1	1.51
Cn1c(=O)n(C/C=C/c2ccccc2)c(=O)c2c1nc1n2CCCN1c1ccc(F)cc1	10.8
COc1ccc(OC)c(-c2cc(C(=O)Nc3cc(C)on3)no2)c1	19.9
O=S(=O)(c1ccc(O)cc1)c1ccc(O)cc1	13.2
Cc1ccc(-c2c[n+](CC(=O)Nc3nc(-c4ccc(F)cc4)cs3)c3n2CCC3)cc1.[Cl-]	-28.7

SMILES	hERG current change (%, negative = inhibition) at 1uM [%]
CN1C(=O)C(=O)/C(=C(/O)c2ccccc2)C1c1ccc([N+](=O)[O-])cc1 (stereo not shown)	22.3
O=c1c2[nH]cnc2n(-c2ccccc2)c(=O)n1Cc1ccccc1	4.96
CCc1cccc(NC(=O)C2CCCN2S(=O)(=O)c2cccc3cccnc23)c1 (stereo not shown)	0.771
CCOC(=O)c1nn(-c2ccccc2)c2nc(-c3ccc(OC)cc3)c(C#N)c(=O)n12	13.9
COc1cccc(C2CC(C(F)(F)F)n3ncc(C(=O)NCC4CCCO4)c3N2)c1 (stereo not shown)	6.7
Cc1ccc(S(=O)(=O)N2CCC(C(=O)N/N=C/c3ccncc3)CC2)cc1	1.33
COC(=O)C1=C(c2ccc(F)cc2F)C[C@@H]2CC[C@H]1N2C(=O)NC(C)C	10.5
CCOC(=O)c1c(NC(=O)CN2CCCCC2)sc2c1CCC(C=O)=C2Cl	16.2
COc1cccc(OC)c1C(=O)Nc1sc2c(c1C(N)=O)CCCC2	7.47
Cc1ccc2ncnc(Nc3cccc(C(=O)O)c3)c2c1.Cl	10.2
CCOC(=O)C1=NN(c2ccc([N+](=O)[O-])cc2)CC1C(=O)OC (stereo not shown)	2.54
O=C(CN1C(=O)C2C3C=CC(C3)C2C1=O)Nc1ccc(S(=O)(=O)Nc2nccs2)cc1 (stereo not shown)	16.6
O=C(Cn1nc(-c2ccccc2)ccc1=O)NCC1CCCO1 (stereo not shown)	-10.2
COC(=O)CCC(NC(=O)OCc1ccccc1)C(=O)NC(CC(C)C)C(=O)OC (stereo not shown) (Cbz-Glu(OMe)-Leu-OMe; configuration not given here)	4.47
Cc1ccc(C(=O)Nc2ccc(N3CCN(C(=O)c4ccco4)CC3)cc2)c(Cl)c1	11.2
CCOC(=O)CSC1=N/C(=C\c2cc(OC)c(OC)c(OC)c2)C(=O)N1C	2.6
Cc1ccc(NC(=O)CN2C(=O)CCSc3ccc(S(=O)(=O)N4CCCC4)cc32)cc1C	14.8
CC(NC(=O)c1ccccc1)C(=O)OCC(=O)c1ccc(Br)cc1 (stereo not shown)	2.14
Cc1nc2ccccc2cc1C(=O)N/N=C/c1cccs1	11.4
Cc1ccc(C(=O)OCC(=O)Nc2ccccc2)cc1NC(=O)c1ccco1	12.3
O=C(NCc1ccc2c(c1)OCO2)C12CN(Cc3ccccc3)CC1C(c1cccc([N+](=O)[O-])c1)=NO2 (stereo not shown)	11.3
